The labels stand for the following.
B1: 36835227_36835347_1850_3pUTR_ENSMUSG00000029192_ENSMUST00000171385|mouse|control|control (ssRNA)
RNA: GGGAGUUCUACAGUCCGACGAUCUGAUAGGGAGAUUUAAAACACACCUUUCAUCUCUGGAAAGAUUAUCUCAGUAACUAAGUAAUUCCUUUCUUACAAGCAUAUGGGCCAAAAACAACUCUGAGGUUUCCUAAUAACAUUUCUCAACAGAGGAUUGAGCAUCA
B2: 92625623_92627572_2463_3pUTR_ENSG00000165934_ENST00000298875|human|control|control (ssRNA)
RNA: GGGAGUUCUACAGUCCGACGAUCAUUGUUGCAAACAAGUACACCUCCUACAAAUUCAGCUUGAAUCCCCUCCCGUAAGAGAACUUGCUUGAAGUCUGACAGCCUUGGUUCAUUCAUAAAAACUGACUGAUGUCCAGGAACCUCCAACAGAGGAUUGAGCAUCA
B3: chr11:75570464:75570465:+_ENSMUSG00000020849_ENSMUST00000067664|mus_hu|motif|central (ssRNA)
RNA: GGGAGUUCUACAGUCCGACGAUCACGGUCAGGGGAAUUAAGAAUUUCGUAGUAGAAUACGGAAAAAUUGAGAGCAAGACCGGAGCGAAUAGGAUGCGUUGGUGGAAGUUCUGUCAUUGCAAUAUCACUAGCAGCUUUAUAAGCCAACAGAGGAUUGAGCAUCA
B4: chr17:65337135:65337136:-_ENSG00000197170_ENST00000584008|hu_mus|motif|central (ssRNA)
RNA: GGGAGUUCUACAGUCCGACGAUCCUGGAAGUUGAUGACUCCAGCCAACCUGUCUACUUUAGCAAAGAUGGUCUUGUUAACGACGGGAUUCGAGAGGAAAGCCUCUGACUCAUCCACAGAGAGAUCCAGAAGUUGUGCCAUCCUCAACAGAGGAUUGAGCAUCA
B5: chr2:47387792:47387793:-_ENSG00000143933_ENST00000272298|hu_mus|FALSE|FALSE (ssRNA)
RNA: GGGAGUUCUACAGUCCGACGAUCUAAGGACAAUGACAGUAAGAUAAGGGAAGAAAACAUGGAGGAAUGAAGUCCUAAUUACUAUACAUGCAUAUUUUUUGACAGUAGGGGGGGGGAACCUUUUACAGAUAAGUUACAAACAAACAACAGAGGAUUGAGCAUCA
B6: chrX:20248820:20248821:+_ENSMUSG00000001924_ENSMUST00000001989|mus_mus|mus_mus_mus_hu_True|48_98 (ssRNA)
RNA: GGGAGUUCUACAGUCCGACGAUCGGCGAAGUCCGUCAUCACAAAGUCAGGUUCUGCCAGUGAGGCCACCAAGGAUUUAAAGCUAAUCUUUUUCGGUACUUUGACCUGACUGACGAUGCCUCCACGGAUGUAGUCGGAGAAGUUCAACAGAGGAUUGAGCAUCA
B7: chr5:179044645:179044646:-_ENSG00000169045_ENST00000393432|hu_mus|FALSE|FALSE (ssRNA)
RNA: GGGAGUUCUACAGUCCGACGAUCUACUCUGCCAUCAGGUCCAAUCUCAAUAUGUACUCUCACAGGGUUGAGUGGUGAAAAAAAAUUAUAAAUGUCAUUCUCAGUAGCUCUGUAUGGUAAUCCCCGCAUGUGUACACAGUGUCCCAACAGAGGAUUGAGCAUCA
B8: chr4:25749455:25749456:-_ENSG00000091490_ENST00000264868|hu_hu|hu_hu_hu_mus_False|18_88 (ssRNA)
RNA: GGGAGUUCUACAGUCCGACGAUCGCACUAUGACCUCUAGAAAAAUCAUUCAAGGAGAAAAAUGUAAACCAAUGUACAAUGUUAUCGCCUUCCCUGUGUGUGGAGUGUUUGUCUCAAUAUUUCAAGGAGCUGCUGGAUUUGGGACAACAGAGGAUUGAGCAUCA
B9: chr7:151048522:151048523:+_ENSG00000013374_ENST00000566856|hu_mus|hu_hu_hu_mus_True|1_88 (ssRNA)
RNA: GGGAGUUCUACAGUCCGACGAUCCUGUUUCUUAUUUAUUACGAUCUUGAUAUAAUUUUCUUGAAAUCCGAAAGUUUCAGCUAUUUGACACCUCAGGUCUCUACCAGUGACAUGCAAGCGGGUCUCCAACAAGCUUUUCCUAUCCAACAGAGGAUUGAGCAUCA
B10: chr2:47387792:47387793:-_ENSG00000143933_ENST00000272298|hu_hu|hu_hu_hu_mus_True|8_38 (ssRNA)
RNA: GGGAGUUCUACAGUCCGACGAUCUAAGGACAAUGACAGUAAGAUAAGGGAAGAAAACAUGGAGGAAUGAAGUCCUAAUUACUAUACAUGCAUAUUUUUUUGACAGUGGGGGGGGGAACCUUUUACAUAAGUUACAAAAACAAACAACAGAGGAUUGAGCAUCA
B11: 29593529_29593649_643_3pUTR_ENSMUSG00000020458_ENSMUST00000102843|mouse|control|control (ssRNA)
RNA: GGGAGUUCUACAGUCCGACGAUCGGGGGCGCGGCGGGCUCCGCUAGGGGGCUCGCGCCGGCUGGCGCCGGAGGCCGCGCUGGAGGCUCGUCGUCCUCCGGGAGCUUGGAGGGCAGGACUGCGGCAGCGGGCGGCAGGGAUGGCCAACAGAGGAUUGAGCAUCA
B12: 156865943_156866063_2208_CDS_ENSMUSG00000055485_ENSMUST00000069098|mouse|control|control (ssRNA)
RNA: GGGAGUUCUACAGUCCGACGAUCGCACAGCCGGGCGGCGUGGGGCUCCAGCGUCUCACCCAGAGGGGCAGGCACGCACUGCGCAGAGUCCCCAGCCUCAGCGUCCGUCUCCAGCAUGGGGCGUGUGCUCUGGCAGGAGGCCAGCAACAGAGGAUUGAGCAUCA
B13: chr4:40210074:40210075:-_ENSMUSG00000036822_ENSMUST00000042575|mus_hu|motif|central (ssRNA)
RNA: GGGAGUUCUACAGUCCGACGAUCUAUAGGACACUUAGAAUCAGGAGAUGCAUCAGCUGGUACUGUCUGUUGCAAUUUGCGGGUGCCAGCUUUAGGUGAAAAGUUGUCCAUUUUAAAUUCCUUAGCAGCUGAUGCCAUUAUCAUCAACAGAGGAUUGAGCAUCA
B14: chr3:41277855:41277856:+_ENSG00000168036_ENST00000349496|hu_mus|motif|central (ssRNA)
RNA: GGGAGUUCUACAGUCCGACGAUCUUCAAUGGCCUCUGCAGCCUCCUUGUCCUGAGCAAGUUCACAGAGGACCCCUGCAGCGGCUCUUUGGAUAUUUUCAAUGGGAGAAUAAAGCAACUGCACAAACAAUGGAAUGGUAUUGAGCAACAGAGGAUUGAGCAUCA
B15: chr2:50987981:50987982:-_ENSMUSG00000017144_ENSMUST00000017288|mus_mus|FALSE|FALSE (ssRNA)
RNA: GGGAGUUCUACAGUCCGACGAUCGGUGGCGACGUGAAAAAUGUCUCUGACGCUGUUUUCUGACUGUAAAGCUGAGCAUUCUAUGUAAGUGGCUGCUCCGAUCUGCUUGGCCAUAUUUGCCCCCUGGUCAUAUGACACAGGAGUCAACAGAGGAUUGAGCAUCA
B16: chr5:145543945:145543946:-_ENSG00000133706_ENST00000545646|hu_hu|hu_hu_hu_mus_True|18_48 (ssRNA)
RNA: GGGAGUUCUACAGUCCGACGAUCCUGAACGGCCAGUGGUGGGAAAUAAUCAAGCCAGUGCUCUGCUUCAGAAAACUUCACUAUGUCUUCAUCAGACAGCCCAAGGGAUUUCAUAAUGCCCCACUGGUACUUAGAAGAUCCUGCCAACAGAGGAUUGAGCAUCA
B17: chr8:97153689:97153690:+_ENSMUSG00000050079_ENSMUST00000060389|mus_mus|FALSE|FALSE (ssRNA)
RNA: GGGAGUUCUACAGUCCGACGAUCGUCUAGUAACAAGGUUAUAACAGCUGGUCCCAAUGGAUCUUCCAAUGGAAUAACUCUAAUUAAAGACUGGACAACAUCCAACCAUCCUUCAUCUGUUUCUGCCAUUUCAUGUAAUGUAAUCAACAGAGGAUUGAGCAUCA
B18: chr19:54062153:54062154:+_ENSMUSG00000024976_ENSMUST00000025932|mus_hu|motif|central (ssRNA)
RNA: GGGAGUUCUACAGUCCGACGAUCUUGGCUGAUGGUACUUUGGGAUCUUUUUCUUUAGAGUCUUUUUCUUUUCCUAAACGGCGGCUCAUGGUGACUCAAGCCUGGACAAAAACUACAUGAACUCCUUUUAUUUUCCAGUAAUUGCAACAGAGGAUUGAGCAUCA
B19: chr3:33650081:33650082:-_ENSG00000163539_ENST00000461133|hu_mus|motif|central (ssRNA)
RNA: GGGAGUUCUACAGUCCGACGAUCCAAAACAGCUGCAUGUCUUUCCAGUGAAUGAGUCUGCCAUUCUUGCAGCAGCAAAUCGGAAAAUUCAAAUGAACGUCUCCUUACAGGAACUGACUUUGAUGUGCAGUUGCUUGUUAUUAACAACAGAGGAUUGAGCAUCA
B20: 167754689_167758600_1407_CDS_ENSG00000173905_ENST00000470487|human|control|control (ssRNA)
RNA: GGGAGUUCUACAGUCCGACGAUCGGUCACAUUUUGCUGUUCUGCUGGAUCAGGUUUUCGAAGGCUUGGAAUCCUAUUCAGAGUAUCUUUCAGUUGUUUAUAUUCUGCAACUUGAGUCUGUGCAGCAGCUAGUGCACUCUUGUGCAACAGAGGAUUGAGCAUCA
B21: chrX:140292434:140292435:-_ENSMUSG00000031285_ENSMUST00000033642|mus_hu|FALSE|FALSE (ssRNA)
RNA: GGGAGUUCUACAGUCCGACGAUCACCUAAAGAUACAUGAGCUAUAAGGAAACUGCUUGUAAAGAUCUGCUGAGGGGGAUUACGAAUGAAAAUGGAGAAGAAGAAAGGGCCAGGAUCAGGUUGAUUCCCACCAACAUACUUCUGCAACAGAGGAUUGAGCAUCA
B22: chr7:44244176:44244177:+_ENSG00000106636_ENST00000223369|hu_mus|hu_hu_hu_mus_False|38_108 (ssRNA)
RNA: GGGAGUUCUACAGUCCGACGAUCACUAUCAUUCCGGACGUAGACAUGGCAAAGAUACUCUUGUUCUUUGACAGAAGCUCUGCUGCCUUUCCCCGAGCGCUCCACAAUCAGUUGACUUGUAAAGGUCAUGAAUUCCUGCACACUCAACAGAGGAUUGAGCAUCA

Some of the results follow.

In this experiment the target is T1, UNK ZnF1-3 (human, UniProt Q9C0B0 31-174).
T1 sequence: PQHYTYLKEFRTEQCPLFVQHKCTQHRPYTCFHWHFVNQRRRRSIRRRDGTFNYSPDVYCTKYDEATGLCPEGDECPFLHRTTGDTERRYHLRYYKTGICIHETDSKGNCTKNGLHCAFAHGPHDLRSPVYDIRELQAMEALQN
Description: nsRBNS (natural sequence RNA bind-n-seq); RBNS binding buffer (assumed for nsRBNS): 25 mM Tris pH 7.5, 150 mM KCl, 3 mM MgCl2, 0.01% Triton X-100, 500 ug/ml BSA, 20 U/ml SUPERase-In, 4 C; UNK is unkempt and MSI1 is Musashi-1; names of the RNAs are library labels; protein concentration not given here; high values mean tight binding.
Regarding B1, the binding signal turned out to be 0.894 enrichment R.
In turn, B2 had a binding signal of 0.983 enrichment R.
To B3 belongs 1.82 enrichment R; to B4, 0.648 enrichment R; to B5, 2.02 enrichment R.
For B6, the binding signal was found to be 0.793 enrichment R.
Molecule B7 registered a binding signal of 2.18 enrichment R.
As to B8, the binding signal amounted to 1.5 enrichment R.
Turning to B9, the binding signal came to 0.96 enrichment R.
Molecule B10 displayed a binding signal of 2.26 enrichment R.
In turn, B11 displayed a binding signal of 0.992 enrichment R.
For the molecule B12, the binding signal was found to be 0.722 enrichment R.
To B13 belongs 0.565 enrichment R; to B14, 1.35 enrichment R; to B15, 1.03 enrichment R.
On to B16, for which the binding signal amounted to 0.965 enrichment R.
As for B17, the binding signal turned out to be 1.01 enrichment R.
Molecule B18 showed a binding signal of 0.757 enrichment R.
As to B19, the binding signal was 0.623 enrichment R.
Turning to B20, the binding signal is 0.583 enrichment R.
To B21 belongs 1.8 enrichment R; to B22, 0.779 enrichment R.

These data come from PMC12136788.
